Experimental data taken from article PMC10868842, “Structural basis of the recognition of adeno-associated virus by the neurological system-related receptor carbonic anhydrase IV” (PLOS Pathogens, 2024).
Results are given in words; binding and its absence hold for the method and conditions named. Some entries that bind do so weakly or less than the wild type.

B1: carbonic anhydrase IV (Car4), Mus musculus, residues 22-277 (receptor, UniProt Q64444 22-277)
chain: WCYEIQTKDPRSSCLGPEKWPGACKENQQSPINIVTARTKVNPRLTPFILVGYDQKQQWPIKNNQHTVEMTLGGGACIIGGDLPARYEAVQLHLHWSNGNDNGSEHSIDGRHFAMEMHIVHKKLTSSKEDSKDKFAVLAFMIEVGDKVNKGFQPLVEALPSISKPHSTSTVRESSLQDMLPPSTKMYTYFRYNGSLTTPNCDETVIWTVYKQPIKIHKNQFLEFSKNLYYDEDQKLNMKDNVRPLQPLGKRQVFKS
B2: Mus musculus carbonic anhydrase IV (Car4), amino acids W22 to S277 (receptor)
chain: B1 chain
notes: carbonic anhydrase IV (Car4), Mus musculus, residues 22-277 (W22 to S277); the functional rows use this molecule for Car4; also called wt Car4; truncated Car4 (22-277); not shown: GST, N-terminal, cleaved

How the values were obtained:
[1] = target: AAV9P31 capsid (adeno-associated virus 9 variant with the 7-mer WPTSYDA inserted in VP3 VR-VIII) (adeno-associated virus 9) (UniProt Q6JC40); test: SPR; BIAcore 8K; AAV9P31 particles immobilised on a CM5 chip by amide coupling (sodium acetate pH 4.0); WT or mutated Car4 proteins flowed over at 30 ul/min, 25 °C, PBST; regeneration with 10 mM glycine pH 2.0; both purified
[2] = target: AAV9 capsid (wild-type adeno-associated virus 9) (adeno-associated virus 9) (UniProt Q6JC40); test: SPR; BIAcore 8K; virus particles (ligand) immobilised on a CM5 chip by amide coupling from sodium acetate pH 4.0; Car4 or hCar4 proteins flowed over as analytes at 30 ul/min, 25 C, PBST; regeneration with 10 mM glycine-HCl pH 2.0; both purified
[3] = target: wild-type AAV9 capsid (adeno-associated virus 9) (UniProt Q6JC40); test: SPR; BIAcore 8K; wild-type Car4 tested on AAV9; who was immobilised is not told for AAV9; both purified
[4] = target: AAV9P31 capsid (adeno-associated virus 9 variant with the 7-mer WPTSYDA inserted in VP3 VR-VIII) (adeno-associated virus 9) (UniProt Q6JC40); test: cryo-EM structure; AAV9P31 on the grid, Car4 (W22-S277) added and incubated for 5 minutes; icosahedral reconstruction and block-based reconstruction of the 3-fold axis blocks; both purified

Row | Molecule | binding [1] | further results
1 | Car4 (22-277) I100A (from UniProt Q64444 22-277) (receptor) | binds | 
2 | Car4 (22-277) L217A (from UniProt Q64444 22-277) (receptor) | binds weakly | 
3 | Car4 (22-277) Q112A (from UniProt Q64444 22-277) (receptor) | binds weakly | 
4 | Car4 (22-277) K83A (from UniProt Q64444 22-277) (receptor) | binds | 
5 | Car4 (22-277) R107A (from UniProt Q64444 22-277) (receptor) | binds | 
6 | B1 |  | binding [2]: no binding (tested: 2500 nM)
7 | B2 |  | binding [3]: no binding; binding [4]: binds
